# Data taken from the supplement of paper PMC3334620.
# Whole data set: some 33,000 sequences, median “E-score (-0.5 to 0.5)” near -0.032, cut for the highest 2% near 0.36. The list shows a part of the results.
# Molecular target: T1, Sko1 (UniProt Q02100)
# T1 sequence: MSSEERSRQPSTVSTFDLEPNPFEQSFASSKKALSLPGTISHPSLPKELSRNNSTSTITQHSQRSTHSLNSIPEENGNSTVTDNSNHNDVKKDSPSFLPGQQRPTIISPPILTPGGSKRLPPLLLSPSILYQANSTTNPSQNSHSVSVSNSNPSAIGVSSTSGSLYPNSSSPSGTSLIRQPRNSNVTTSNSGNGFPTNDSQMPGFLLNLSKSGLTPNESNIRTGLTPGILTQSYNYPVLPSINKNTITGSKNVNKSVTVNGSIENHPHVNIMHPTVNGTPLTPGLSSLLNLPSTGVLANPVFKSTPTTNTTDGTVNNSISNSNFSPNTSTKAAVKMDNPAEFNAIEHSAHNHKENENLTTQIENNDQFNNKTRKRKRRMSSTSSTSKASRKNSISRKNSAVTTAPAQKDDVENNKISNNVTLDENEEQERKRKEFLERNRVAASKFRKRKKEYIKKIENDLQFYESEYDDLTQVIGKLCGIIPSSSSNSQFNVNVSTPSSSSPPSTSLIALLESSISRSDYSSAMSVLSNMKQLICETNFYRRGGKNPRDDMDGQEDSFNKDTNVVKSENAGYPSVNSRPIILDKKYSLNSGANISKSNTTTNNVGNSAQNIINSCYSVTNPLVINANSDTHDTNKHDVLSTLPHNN
# Test: PBM E-score (8-mer binding enrichment) (E-score (-0.5 to 0.5)); higher = stronger / more preferred TF binding; most listed sequences are background and not binding sites
# Settings: protein concentration: 200 nM; construct: GST-full length
# Method in brief: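 Yeast transcription factors, full-length or as DNA-binding domains, were expressed with a GST tag using PURExpress in vitro transcription/translation. At about 100-200 nM they were applied to universal all-10-mer Agilent arrays, double-stranded by primer extension on fresh or once-stripped slides. Fluorescent anti-GST detected bound protein, and masliner normalised the scans. E-scores for ungapped eight-base words, pooled with reverse complements, came from the Universal PBM Analysis Suite.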
row,Sequence,PBM E-score
1,CTCGCCAG,-0.333
2,AGAATGAC,0.377
3,ACTCGCTG,-0.262
4,GTTCCAAC,0.0963
5,ACCTCAGG,-0.325
6,ACCAATCG,-0.0521
7,CACTCGAA,-0.00414
8,AGGGAGGG,-0.341
9,GGCTATCA,-0.0692
10,CTCTACCA,-0.215
11,AGAGGGAT,-0.301
12,AGTAGTGA,0.144
13,GCGGACAA,-0.0673
14,AAGAGTTG,0.12
15,AGTATGCA,-0.0795
16,CCAATAAA,0.0939
17,GACCTGTA,-0.134
18,AGTCCGGA,-0.134
19,AGTAGCGA,0.107
20,GGAAGCTA,-0.135
21,CTGGTTGA,-0.29
22,ACGGCATG,-0.0834

row,Sequence,PBM E-score
1,AGACACAG,-0.099
2,CACCACGA,0.204
3,CAGTATGA,0.129
4,CGGTATGC,-0.097
5,AAAATAAT,0.235
6,CTCGATAA,-0.114
7,AAAAGAAC,0.0862
8,AGACACAT,0.0361
9,CCCCGTCG,-0.245
10,ACATTTGG,-0.117
11,GTAGCTGA,0.03
12,GCACAGAC,-0.0296
13,CGAAGGTA,0.0326
14,ATAAAGGA,-0.211
15,ACGCAGAC,0.0967
16,ATGGGTGG,-0.0707
17,ACCGTTCA,-0.125
18,ATGTGACG,0.44
19,GTGCAAGA,0.0934
20,ATTATTCC,0.0482
21,ACTCACAT,0.0595
22,GCCCGCCC,-0.173

row,Sequence,PBM E-score
1,CACAGTAA,0.17
2,GTTAACCA,0.0228
3,GAAAGTGC,-0.11
4,GCTGAGCA,-0.135
5,CTTTAAGA,0.118
6,GAGCGACA,0.104
7,AGCTGTTG,-0.0671
8,TCGAGTAA,0.207
9,ATGAGAAG,0.0598
10,AGGCGCCT,-0.263
11,ACGCGAGC,0.185
12,GAGGTCCA,-0.189
13,CAAACTGG,-0.369
14,CACCCTCG,-0.155
15,AACGAATA,0.0548
16,GCAGTAGC,-0.269
17,ACGGGGAT,-0.26
18,CTTGGGTC,-0.348
19,TTGGAAAA,0.109
20,AGGCAATA,-0.0969
21,AAGTCTGA,-0.0839
22,CGAGGCCG,-0.332

row,Sequence,PBM E-score
1,CTAGGGAC,-0.221
2,GTGTCTCA,0.0768
3,CACAGAAC,-0.0732
4,CAGCCATA,-0.0756
5,AGTACGAC,0.157
6,AGGAGAAG,-0.214
7,AATAATAT,0.197
8,CTTGTCAA,0.0362
9,AGCCATTC,-0.0843
10,CCACATGG,-0.152
11,CACGTGTA,0.399
12,GACATCTA,0.0663
13,ATCCCCAT,-0.012
14,ATGTATGC,0.212
15,CCGTACGC,0.0653
16,CAAGGGAG,-0.339
17,AAGCCGGT,-0.179
18,GCGGGAGC,-0.331
19,TATTGTGA,0.183
20,AGCTTCGC,-0.0742
